Experimental data taken from the supplement of paper PMC10126150.
Sequences with one replicate were seen in a single cluster, so their values are uncertain.

tested on: ATP; assay: switch fluorescence ratio, 500 uM ATP over buffer (Cy3 cluster intensity, sum of 5 cycles each) (fold (ratio)); higher = stronger signal-on switching upon ATP binding; sequences stand for … in TCGTCGGCAGCGTCAGATGTGTATAAGAGACAGTTTTTTTTTTTTTTTTTTTTTTTTT…TC; conditions: aptamer strand: ATP DNA aptamer (quencher-CACCTGGGGGAGTATTGCGGAGGAAGG + anchor), 100 nM annealed; ATP concentration: 500 uM; one replicate
Method in brief: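 After annealing to 100 nM quencher-labelled ATP aptamer, Cy3-labelled switching-strand clusters on a modified Illumina MiSeq flow-cell were imaged in selection buffer. A second image followed after 15 min with 500 uM ATP at 22 °C, and five such buffer/ATP cycles were done, each separated by NaOH stripping and re-annealing. The fluorescence ratio, averaged per switch-domain sequence, is summed target-cycle over summed buffer-cycle Cy3 intensity per cluster, with clusters outside 100-1000 RFU excluded.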
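Further: ATP exposure 15 min at 22 °C before imaging.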

Sequence | switch fluorescence ratio
ATTGGGCCTT | 1.03
CTCGCTGAAA | 1.01
GTTTCAGAAT | 0.973
CATAGGATAA | 1.02
GGCTCCCATG | 1.07
GATCTCGGTG | 0.966
TGAGCTCATA | 1.06
TATCTAAAAA | 0.984
GTTTCGTCGT | 1.02
GTTACGAATT | 1.01
GTCACAGGAG | 1.13
ATTGGCAAGC | 1.16
TTGGGTGCGT | 1.02
TTAAAACAT | 1.02
GGGACGGGCT | 1.26
CCCATGGCTA | 0.998
AATGTGAATC | 1
TTGTGCGGTG | 1.17
CTGGGTCTTA | 0.952
TTTCGAAGAT | 1.02
GCTACACGTT | 1.04
TTAAGACAGT | 0.988
GGCCATGTAA | 0.972

Sequence | switch fluorescence ratio
TCTGAAGGCA | 1.13
TGGTCGGGAA | 0.98
TTGAGACAGT | 0.979
TATGTGTTCC | 1.01
GGTCGGATTG | 0.973
ACAACTAATA | 1.03
AACTACGCGG | 1.29
ATTCCTGTAG | 1.06
GGGAGTCATA | 1.05
AATCAGTCGT | 0.987
CTGCCTATAT | 1.08
GTTCACCATC | 0.991
ACGGTACTCG | 1.24
CAGGTGACTG | 1.03
CATGAACTTA | 1.03
CGATAATTGT | 0.99
TGCTTCGGA | 1.01
AGCGGATTAT | 0.982
ATGTAGCCGC | 1
TTGGCCCAAG | 1.06
TCAAAGGTTG | 1.05
AAACCCGTGG | 1.01
AAGTGGTTCT | 1.02

Sequence | switch fluorescence ratio
GAGCGGAGTA | 1.06
GGGGAATCAT | 0.921
GAGACCGTTC | 0.986
CGAGCTGGCT | 1.04
ATAGGAAAGT | 0.983
CTAAATGTCT | 1
TCATGTACG | 1.05
TGGCCCATCT | 0.994
CGATGTAGCA | 0.991
TCCTCTTGGC | 1.21
TTAAGTTTCC | 1.15
CTTACGCGGC | 1.04
TTAAGCGTGC | 0.993
AAGTTGAGAC | 1.01
CACGCCAGTC | 1.03
AGCACCTAAA | 0.995
GCCGTGTGGG | 1.03
GGTTGTCCGC | 1.03
CAGTGTTCGG | 0.981
AAAATCCGAT | 0.975
CCCTCCCTGA | 1.37
TCTCAAATGC | 1.54
GAACATCGCC | 0.996

Sequence | switch fluorescence ratio
TAAGAGGGAT | 1.08
CATAGGTCAA | 1.02
GGCCCCTGGT | 1.18
CAGACTGTGG | 0.99
ATGTATGCAA | 1.05
TAGGGTCAAA | 0.922
ATATGCCCGG | 0.965
TGTTGGATAA | 0.992
TTACTAGACC | 1.21
TGTTTCGAAC | 0.997
TTTATAAGA | 0.971
ATGCCGGCCG | 1.04
ATCCTACGT | 1.16
GCCTTCTTCG | 1.03
GGGCCTTAC | 1.97
CGGGATGCTT | 1.02
GTGATACCAC | 1.02
CCACTACGGG | 1.07
AGGCTATGGG | 0.996
GGAGATGGGA | 0.95
GTTCGGCTGC | 0.95
AAGGTGTGGT | 1.02
GCCTGCCGAC | 1.82

Sequence | switch fluorescence ratio
AAACAATATC | 1.12
ACAAAAAAAT | 1.01
AGTACCTGGA | 1.19
GAGTCCTATA | 0.999
GGTAGTACAT | 1
TAGTCGGGTA | 1.03
ATGCGAGTAC | 1.02
AGCACCATAT | 1.16
TCATAGGCAA | 1.95
TGCGCCACAT | 1.03
TTCCAATATT | 1.89
CCTCCCTCGG | 2.55
ATACAATGGC | 0.998
TATATCGCTG | 1.06
GACATCGGAG | 0.984
TAACGGCGAT | 0.995
CAGTTTCTTT | 0.98
CGGTGGGAAG | 1
AGTGGGGAGT | 0.987
CAGATCGTGT | 1
CCTTTTTCAT | 1.01
GCATTGAATT | 1.01
ACGATGGCCC | 1.05

Sequence | switch fluorescence ratio
CCATATCGCA | 1.91
GAGTGCGG | 1.02
GCTAAAGGCT | 0.975
AAGTTAGAAC | 0.99
GTTTAACCTA | 0.988
CGGACACCTA | 1.1
GTCTCAGGA | 1.01
TATGCGGAAA | 1.05
CTGTCCCTAT | 0.99
TTGTTACAGT | 1.05
TTCACGGGAA | 0.946
AGTCGGGCTG | 1.01
AGGGGCTCCT | 0.978
ATTTCGTAT | 1.03
AGAGCGCCTT | 1.05
AACTCGGATG | 0.973
CCAACTTAA | 1.04
ATGCGGTAAG | 0.997
TCCCGAGGT | 1.08
AGAACGGGGG | 0.89
GCAGGAATCA | 1.05
TCGTATCTAT | 1
AGCTCCGTCG | 1.08

Sequence | switch fluorescence ratio
GTCGGGCGC | 0.972
GGGACCTGGT | 1.06
TTTGTGCC | 0.994
AAGGCAACGA | 1.04
AGCTTCGTGT | 0.995
GTCTCAATG | 0.973
TTAGACATAA | 1.02
TTATAATGTA | 0.983
TATTAATTCA | 1.02
ACCCTTGATG | 1.03
ATATCGGGCG | 0.989
AACAGGTCTA | 1.01
CGTCAAATCA | 1.03
TAATTTATC | 1.01
GCGGTGCTCA | 1.13
GAGTATGAGC | 1.04
ATGACGGCGC | 0.93
GTAGTAGCAG | 1
TTACCATC | 0.947
